In publication PMC4336329 (PLoS ONE, 2015):
Among all 310,000 compounds or so, about 2,200 (0.71%) showed an effect of 50% or more. The effect is printed as a negative number. Some of the results follow.

biological target: human ether-à-go-go-related gene (hERG) potassium channel (human, UniProt Q12809); assay: primary screen, population patch clamp on CHO cells stably expressing hERG
Sequence (Q12809 whole entry, looked up): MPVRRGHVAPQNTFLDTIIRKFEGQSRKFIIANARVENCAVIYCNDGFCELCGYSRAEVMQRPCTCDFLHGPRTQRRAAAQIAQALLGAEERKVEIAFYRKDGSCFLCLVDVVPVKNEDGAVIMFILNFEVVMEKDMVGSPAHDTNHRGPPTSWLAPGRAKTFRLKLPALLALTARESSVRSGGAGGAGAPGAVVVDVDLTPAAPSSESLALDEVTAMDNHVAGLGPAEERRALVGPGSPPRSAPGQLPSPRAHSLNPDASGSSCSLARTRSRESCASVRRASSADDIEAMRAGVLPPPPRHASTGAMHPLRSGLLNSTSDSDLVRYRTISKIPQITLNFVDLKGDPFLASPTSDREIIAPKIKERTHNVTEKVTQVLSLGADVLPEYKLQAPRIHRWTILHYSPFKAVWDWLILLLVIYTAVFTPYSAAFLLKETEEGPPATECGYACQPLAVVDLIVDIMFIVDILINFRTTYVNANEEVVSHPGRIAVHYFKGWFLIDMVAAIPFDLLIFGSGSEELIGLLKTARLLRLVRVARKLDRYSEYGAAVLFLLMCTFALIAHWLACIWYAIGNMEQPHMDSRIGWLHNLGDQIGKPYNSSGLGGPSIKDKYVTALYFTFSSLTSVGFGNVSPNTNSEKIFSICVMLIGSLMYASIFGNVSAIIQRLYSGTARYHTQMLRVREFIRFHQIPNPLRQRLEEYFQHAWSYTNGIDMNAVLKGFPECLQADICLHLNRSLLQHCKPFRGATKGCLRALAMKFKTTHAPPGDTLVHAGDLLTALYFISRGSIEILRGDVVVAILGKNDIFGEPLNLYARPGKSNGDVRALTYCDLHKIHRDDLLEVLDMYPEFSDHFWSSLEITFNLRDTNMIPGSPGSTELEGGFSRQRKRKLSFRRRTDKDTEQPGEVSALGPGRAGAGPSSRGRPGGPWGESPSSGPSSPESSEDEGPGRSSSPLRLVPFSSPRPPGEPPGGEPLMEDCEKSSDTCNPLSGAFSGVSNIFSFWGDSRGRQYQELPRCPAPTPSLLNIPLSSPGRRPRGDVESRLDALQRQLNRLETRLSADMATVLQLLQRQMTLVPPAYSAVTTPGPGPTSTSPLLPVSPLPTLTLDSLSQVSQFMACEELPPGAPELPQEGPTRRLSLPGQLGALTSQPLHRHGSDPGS

Row | SMILES | hERG current change (%, negative = inhibition) at 1uM
1 | CCOP(=O)(OCC)C(NC(=O)c1ccc(C)cc1)=C(Cl)Cl | 9.41%
2 | Cn1c(=O)n(C)c2cc(NS(=O)(=O)c3ccc(Cl)s3)ccc21 | 17.8%
3 | Cc1ccc(S(=O)(=O)CCC(=O)OCn2nnc3ccccc3c2=O)cc1 | 8.34%
4 | CCCCn1c(N)c(N(CC)C(=O)c2cccc(OC)c2)c(=O)[nH]c1=O | 6.92%
5 | Cc1ccc(OCC(=O)OCC(=O)c2ccccc2)cc1C | 6.93%
6 | Cc1cc(OC(=O)c2ccc(S(=O)(=O)N(C)C)cc2)c([N+](=O)[O-])c(=O)[nH]1 | 5.99%
7 | CC1CCN(S(=O)(=O)c2nnc(NC(=O)c3cccc(Cl)c3)s2)CC1 | 5.4%
8 | CCC(C)(C)C1CCC2(CC1)NC(=O)N(CC(=O)NCCc1ccc(OC)c(OC)c1)C2=O (stereo not shown) | 12.2%
9 | O=C(Nc1nccs1)c1ccc(Cl)cc1[N+](=O)[O-] | 2.34%
10 | CC(=O)N(NC(=O)c1ccccc1Cl)C1CC(=O)N(c2ccc(C)cc2)C1=O (stereo not shown) | 16.6%
11 | COC(=O)c1ccc(N2CCOCC2)c(NC(=O)c2ccco2)c1 | 7.23%
12 | O=C(Nc1cc(Cl)cc(Cl)c1)Nc1cnccn1 | 10.4%
13 | N#Cc1c(N)nc2c(c1N)CC(CCl)O2 (stereo not shown) | 15.2%
14 | COc1cccc(CN(Cc2ccco2)S(=O)(=O)c2ccc(S(=O)(=O)NCc3ccccc3)cc2)c1OC | 13%
15 | N#Cc1ccccc1CSc1ccc(-c2nc3ccccc3[nH]2)cn1 | 16.2%
16 | N=c1c(C(=O)NC2CCCCC2)cc2c(=O)n3ccccc3nc2n1CCc1ccccc1 | -88.1%
17 | O=C(CNS(=O)(=O)c1ccc(Br)s1)NCC1COc2ccccc2O1 (stereo not shown) | 11.2%
18 | COc1ccc(S(=O)(=O)N2CCN(Cc3cc(=O)n4ccccc4n3)CC2)cc1 | 3.94%
19 | CCCCCOCC1CC(C/C(C)=N/Nc2nc(-c3ccccc3)cs2)C(=O)O1 (stereo not shown) | 0.71%
20 | COc1ccc(S(=O)(=O)N(CC(=O)N2CCOCC2)Cc2ccccc2)cc1C | -0.723%

Row | SMILES | hERG current change (%, negative = inhibition) at 1uM
21 | CCN(CC)S(=O)(=O)c1cccc(NC(=O)COC(=O)CNC(=O)c2cccc(F)c2)c1 | -11.1%
22 | N/C(Cc1ccc([N+](=O)[O-])cc1)=N\OC(=O)C1CCCCC1 | 1.83%
23 | CC1CCCN(C(C(=O)Nc2ccc3c(c2)OCO3)c2ccccc2)C1 (stereo not shown) | 12.1%
24 | O=C(NC1CCCC1)C1c2ccccc2C(=O)N1C1CCCCC1 (stereo not shown) | -1.85%
25 | CN(C)CCN1C(=O)C(O)=C(C(=O)c2ccco2)C1c1ccccc1F (stereo not shown) | 10.4%
26 | Cc1cc(NC(=O)c2cc([N+](=O)[O-])cc([N+](=O)[O-])c2)n(-c2ccccc2)n1 | 13.3%
27 | CCOC(=O)CSC(C)C(=O)Nc1nnc(C(C)C)s1 (stereo not shown) | 3.06%
28 | COc1ccc(C2=NC(CO)(CO)CO2)cc1 | 16.1%
29 | COc1cccc(NC(=O)CC(C)=O)c1 | 9.03%
30 | O=C(Cc1ccc(-c2ccccc2)cc1)NC(c1ccccc1)c1ccccc1 | 13%
31 | Cc1csc(NC(=O)c2c(O)c3c(n(CC(C)C)c2=O)CCCC3)n1 | -0.48%
32 | Cc1ccccc1OCCCC(=O)NC1CCCCC1 | 15.7%
33 | CCN(CC)S(=O)(=O)c1ccc(N=Nc2cc(C)cc(Br)c2O)cc1 | 12.2%
34 | c1ccc(OCc2ccc(CCCN3CCOCC3)cc2)cc1 | -5.57%
35 | COC(=O)C1=C(c2cc3ccccc3s2)C[C@@H]2CC[C@H]1N2C(=O)NCCNC(C)=O | 6.85%
36 | COc1ccccc1NS(=O)(=O)c1cccc(N2CC(O)=C(c3ccccc3)C2=N)c1 | -0.787%
37 | O=c1c2ccccc2ncn1CCCOc1ccccc1[N+](=O)[O-] | -18.8%
38 | Clc1ccc(N2CCCCCC2)nn1 | 6.71%
39 | NC(=O)N/N=C/c1ccccc1OCc1cccc2ccccc12 | 6.35%
40 | C=C1c2ccccc2NC(=O)N1c1ccc(C)cc1 | 10.9%

Row | SMILES | hERG current change (%, negative = inhibition) at 1uM
41 | C=CCc1cc(C=C2C(=O)N(C)C(=O)N(C)C2=O)cc(OCC)c1OCc1ccccc1 | 14.5%
42 | Clc1ccccc1-c1nc(/C=N/N2CCOCC2)c2ccccn12 | 16.9%
43 | CCOC(=O)CSc1nc(C)cc(C)c1C(N)=O | 9.75%
44 | Cc1ccc(NC(=O)c2ccccc2F)nc1 | -2.15%
45 | COc1cccc(Nc2ccc(-n3ccnc3)nn2)c1 | 12.3%
46 | O=C(N1CCOCC1)N1CCN(c2ccccc2F)CC1 | 7.61%
47 | Cc1ccc(C(=O)NCCCN2CCOCC2)cc1S(=O)(=O)N1CCOCC1 | 8.87%
48 | COC(=O)c1cccc(NC(=O)c2cnoc2C)c1 | 1.75%
49 | CCOC(=O)N1CCN(S(=O)(=O)c2ccc3[nH]cc(C(=O)O)c(=O)c3c2)CC1 | 5.65%
50 | COc1ccc(/C(C)=N/NC(=O)CNC(=O)c2ccco2)c(OC)c1 | 11.1%
51 | CC(=O)N1CCN(CCN=Cc2c(O)n(-c3ccc(C)cc3)c(=S)[nH]c2=O)CC1 | 13.8%
52 | CC(C)c1ccc(/C=C/C(=O)NC(=S)NN2CCOCC2)cc1 | 11.6%
53 | CN1CCN(Cc2c(O)ccc3cc(-c4ccccn4)c(=O)oc23)CC1 | 10.1%
54 | CC1(C)CC(=O)C2=C(C1)OC(N)=C(C#N)C2C#Cc1ccccc1 (stereo not shown) | 14.7%
55 | CN(C)S(=O)(=O)c1ccc(-c2ccccc2)cc1 | 11.9%
56 | Cc1csc2ncc(C(=O)NCCc3ccccc3)c(=O)n12 | 1.47%
57 | COc1ccc(N=C2NC(=O)S/C2=C\c2ccc(N(C)C)cc2)cc1 | 15.3%
58 | CCOC(=O)CSc1ccc(C(=O)Nc2ccc(OC)cc2)cn1 | 10.7%
